Reference: PubChem BioAssay AID686978 (National Center for Advancing Translational Sciences (NCATS), 2013)
The whole screen tested about 420,000 compounds, of which about 64,000 (15%) were called active. The inconclusive results got no clear call from the source; some entries with a clear call stand among them for comparison. Calls come from the whole dose curve; as a rule, active = well fitted inhibition curve with a large enough effect; inconclusive = small, poorly fitted or top-dose-only effect; inactive = flat fitted curve, though single readings scatter. Potencies of inconclusive entries are left out as doubtful fits.

assay: qHTS for Inhibitors of human tyrosyl-DNA phosphodiesterase 1 (TDP1): qHTS in cells in absence of CPT; conditions: DT40 Tdp1-/- hTDP1 cells, no CPT, ATP luminescence, 48 h; activity change, negative = growth inhibition: at 46.2 µM (top of the series) unless noted; note: nearly all actives have a fitted effect of over 55% in size
Procedure, shortened: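 Stably hTDP1-transfected Tdp1-null chicken DT40 cells were treated with library compounds minus camptothecin and grown for at least 48 hr at 37 °C, after which cellular ATP was quantified by luminescence.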
% is set by controls: 0 for no effect and ±100 for the full control effect; potency is the fitted concentration of half-maximal effect; tags give direction and shape of the fitted curve.

| SMILES | Potency | activity change, negative = growth inhibition |
| --- | --- | --- |
| COc1cc(/C=C/C(=O)O)cc(S(=O)(=O)Nc2ccccc2SC)c1OC | inactive |  |
| O=C(c1cn[nH]c1)N1CCc2c([nH]c3ccccc23)C1c1c(F)cccc1Cl (configuration not stated) | inconclusive [inhibitor, partial curve, poor fit] |  |
| O=S(=O)(c1ccc(-c2csc(=Nc3ccccc3)n2CCCN2CCOCC2)cc1)N1CCOCC1 | inconclusive [inhibitor, single point] |  |
| COc1ccc(N=Cc2nc(-c3ccccc3)oc2OC(=O)c2ccccc2)cc1 | active: 23.1 µM |  |
| COc1cc(/C=N/Nc2ccccc2[N+](=O)[O-])ccc1OC(=O)c1ccccc1F | inconclusive [inhibitor, single point] |  |
| O=C(NC(c1ccc(Cl)cc1)c1cnccn1)C1CCN(CCOc2ccc(F)cc2)CC1 (configuration not stated) | active: 18.4 µM |  |
| Cc1ccc(-c2nc3cccnc3s2)cc1NS(C)(=O)=O | active: 20.6 µM |  |
| CCCCC(=O)N=c1sc2cc([N+](=O)[O-])ccc2n1C | inactive |  |
| Cc1ccccc1OCC(=O)N/N=C/c1ccccn1 | inconclusive [inhibitor, partial curve, poor fit] |  |
| Cc1c(C(=O)O)cccc1-n1c(C)cc(/C=C(/C#N)C(=O)NCc2ccccc2)c1C | inactive |  |
| CC(=O)Nc1ccc(S(=O)(=O)NC(C)C(=O)NCC(c2ccco2)N2CCCCC2)cc1 (configuration not stated) | inactive |  |
| Cc1cccc(CN2CCOCCS2(=O)=O)c1 | inactive |  |
| CNc1cc(C(=O)Nc2cccc(OCc3ccccc3)c2)ncn1 | inconclusive [inhibitor, partial curve, poor fit] |  |
| CC(C)(C)NC(=O)NC(=O)CN1CCCCC1 | inactive |  |
| Cc1cc(N)ccc1N1CCCC1 | inconclusive [inhibitor, single point] |  |
| Cc1ccc(C)c(/C=C(\C(=O)O)c2ccc(S(=O)(=O)N3CCCCC3)s2)c1 | inactive |  |
| O=C(CSc1nnc(NC(=O)c2c(F)cccc2F)s1)NCc1ccco1 | inactive |  |
| CC1(C)CCSC(/C=C/c2ccccc2)=N1 | active: 4.61 µM |  |
| Cc1ccc(O)c(NC(=O)c2noc3c2CCCCC3)c1 | inconclusive [inhibitor, single point] |  |
| Cc1ccc(S(=O)(=O)N2C[C@H]3C(=O)C[C@@H](c4ccccc4)N(S(=O)(=O)c4ccc(C)cc4)[C@H]3C[C@H]2c2cccs2)cc1 | inconclusive [inhibitor, full curve, poor fit] |  |
| S=C(NC1CCCCC1)NN(c1ccccc1)c1ccccc1 | inconclusive [inhibitor, single point] |  |
| Cc1cc([N+](=O)[O-])ccc1NS(=O)(=O)c1ccccc1 | active: 23.1 µM |  |
| O=C(CC1C(=O)N(c2ccc(F)cc2)C(=O)N1Cc1ccc2c(c1)OCO2)Nc1ccc(F)cc1 (configuration not stated) | inconclusive [inhibitor, partial curve, poor fit] |  |
| O=C(c1n[nH]c2c1CCCC2)N1CCOc2ccc(C(O)C(c3ccccc3)c3ccccc3)cc2C1 (configuration not stated) | inconclusive [inhibitor, single point] |  |

| SMILES | Potency | activity change, negative = growth inhibition |
| --- | --- | --- |
| COc1ccc(OC)c(NC(=O)C2(C)CCN2CCOc2ccccc2)c1 (configuration not stated) | inconclusive [inhibitor, single point] |  |
| COc1ccc(S(=O)(=O)N2CCOCC2)cc1NC(=O)CN1CCCC1 | inactive |  |
| COc1ccc2[nH]c(=O)c(CN(CCCN(C)C)C(=O)Nc3ccccc3)cc2c1 | inconclusive [inhibitor, single point] |  |
| CN(C)Cc1ccccc1-c1nccc(N(C)Cc2ccco2)n1 | inconclusive [inhibitor, single point] |  |
| Cc1cc(Cl)c(S(=O)(=O)N2CCN(c3ccc(F)cc3)CC2)cc1OCC(=O)NC1CCCCC1 | active: 8.2 µM |  |
| CCOc1ccc(NC(=O)CSc2ccc3nnc(-c4cccnc4)n3n2)cc1 |  | inconclusive: -7.35% [inhibitor] |
| O=C(O)c1ccc(-n2cc(-c3cc4ccccc4oc3=O)[nH]c2=S)cc1 | inactive |  |
| CCCCCCn1cc(CN2CC(N(C)CCC)CS2(=O)=O)nn1 (configuration not stated) | inactive |  |
| COc1cc(NC(=O)c2ccc(C(=O)c3ccccc3)cc2)cc(OC)c1OC | inconclusive [inhibitor, single point] |  |
| Cc1ccc(C(=O)/C=C/Nc2ccccc2C(N)=O)cc1 | inactive |  |
| COc1ccc(N2CC(C)(C)[C@H](CC(=O)Nc3ccc(Br)cc3)C2=O)cc1 | inconclusive [inhibitor, partial curve] |  |
| COc1cc2c(cc1OC)C(C)N(C(=O)[C@@H](NC(=O)c1ccccc1)C(C)C)CC2 (some centres not stated) | active: 29.1 µM |  |
| O=C1CC(c2ccccc2)CC(O)=C1C=Nc1ccccc1O (configuration not stated) | inconclusive [inhibitor, full curve, poor fit] |  |
| CCNCc1cc2cc(C)ccc2[nH]c1=O | inconclusive [inhibitor, single point] |  |
| Cc1c(N=NC2=C(O)CCCC2=O)c(=O)n(-c2ccccc2)n1C | inconclusive [inhibitor, single point] |  |
| CC(C)N(C)c1ncnc2c1ncn2[C@H]1CN(Cc2ccncc2)C[C@@H](CO)O1 | active: 23.1 µM |  |
| CCn1c(=NC(=O)CN2C(=O)CCC2=O)sc2c(OC)ccc(OC)c21 | inconclusive [inhibitor, partial curve] |  |
| CC(C)CN(C(=O)C(C)N1C(=O)c2ccccc2C1=O)c1c(N)n(Cc2ccccc2)c(=O)[nH]c1=O (configuration not stated) | inactive |  |
| O=C(C[C@H]1C/C=C\CC[C@@H](Cc2ccc(F)cc2)C(=O)OC[C@H]2CCCN2C1=O)N[C@H](CO)Cc1ccccc1 | active: 20.6 µM |  |
| CC1=C(C(=O)Nc2cccc(C(=O)NC(C)c3ccccc3)c2)SCCO1 (configuration not stated) | active: 16.4 µM |  |
| COC(=O)c1c(NC(=O)C2CC(=O)NN2Cc2ccccc2)sc(C)c1C (configuration not stated) | inactive |  |
| CCOC(=O)c1cnc2c(C)cccc2c1NCCc1ccc(OC)c(OC)c1 | active: 23.1 µM |  |
| Cc1ccc(N2CCN(CCc3nc4cc(NC(=O)c5ccco5)ccc4n3C)CC2)cc1 | inconclusive [inhibitor, single point] |  |
